Some of the results follow.
Assays:
HSkMC = human skeletal muscle cells; experiment: cytotoxicity call (relative viability < 0.9); settings: 10 µM
HepG2 = experiment: cytotoxicity call (relative viability < 0.9); settings: 10 µM
S. aureus RN4220 = experiment: growth inhibition call (relative growth <= 0.2); settings: 50 µM

Question: For `Nc1ccc(O)c(C(=O)O)c1`, which cytotoxicity call (HSkMC) is on record?
Answer: inactive

Question: What about the cytotoxicity call (HepG2) of the same compound?
Answer: inactive

Question: And the growth inhibition call (S. aureus RN4220)?
Answer: inactive

Question: What does the source list for `C[C@@H]1CCCCO[C@H](CN(C)Cc2ccccc2)[C@@H](C)CN([C@@H](C)CO)C(=O)c2cc(NC(=O)Nc3ccc4c(c3)OCO4)ccc2O1`?
Answer: cytotoxicity call (HSkMC): inactive; cytotoxicity call (HepG2): inactive; growth inhibition call (S. aureus RN4220): inactive

Question: `C#CCCCCCCCCCCC[C@H](O)C[C@H](O)CO.C=CCCCCCCCCCCC[C@H](O)C[C@H](O)CO` was tested. Which cytotoxicity call (HSkMC) did it give?
Answer: inactive

Question: What about the cytotoxicity call (HepG2) of the same compound?
Answer: inactive

Question: What about the growth inhibition call (S. aureus RN4220) of the same compound?
Answer: inactive

Question: Which results are given for `C=CCNC(=O)[C@@H]1[C@H]2C(=O)O[C@H](c3ccccc3)[C@H](c3ccccc3)N2[C@H](c2ccccc2OCCO)[C@@]12C(=O)N(C(=O)OCCOC)c1ccc(C#Cc3ccc(OC)cc3)cc12`?
Answer: cytotoxicity call (HSkMC): inactive; cytotoxicity call (HepG2): inactive; growth inhibition call (S. aureus RN4220): inactive

Question: For `CC(C)(C)c1cc(NC(=O)Nc2ccc(Oc3ccnc4nc(O)cnc34)cc2F)n(-c2ccccc2)n1`, which cytotoxicity call (HSkMC) is on record?
Answer: active

Question: What about the cytotoxicity call (HepG2) of the same compound?
Answer: inactive

Question: What about the growth inhibition call (S. aureus RN4220) of the same compound?
Answer: inactive

Question: What does the source list for `COC(=O)N1CCC[C@H](C(=O)O)C1`?
Answer: cytotoxicity call (HSkMC): inactive; cytotoxicity call (HepG2): inactive; growth inhibition call (S. aureus RN4220): inactive

Question: What does the source list for `CCN1[C@H](C(=O)NCCc2cn(C)cn2)[C@@H](CO)[C@@H]2Cn3c(ccc(-c4ccncc4)c3=O)[C@@H]21`?
Answer: cytotoxicity call (HSkMC): inactive; cytotoxicity call (HepG2): inactive; growth inhibition call (S. aureus RN4220): inactive

Question: How did the cytotoxicity call (HSkMC) turn out when `C[C@H]1CN([C@@H](C)CO)C(=O)Cc2cc(NC(=O)CCN3CCOCC3)ccc2O[C@@H]1CN(C)C(=O)Nc1ccccc1` was run?
Answer: inactive

Question: And the cytotoxicity call (HepG2)?
Answer: inactive

Question: What about the growth inhibition call (S. aureus RN4220) of the same compound?
Answer: inactive

Question: Which cytotoxicity call (HSkMC) does the source give for `O=C(O)[C@@H]1[O][Sb]2([OH])([O][Sb]34([OH])[O][C@H]([C@H](O)CO)[C@H]([O]3)[C@H](C(=O)O)[O]4)[O][C@H]([C@H](O)CO)[C@@H]1[O]2` here?
Answer: inactive

Question: And the cytotoxicity call (HepG2)?
Answer: inactive

Question: What about the growth inhibition call (S. aureus RN4220) of the same compound?
Answer: inactive

Question: Which results are given for `C[C@@H]1CN([C@@H](C)CO)C(=O)Cc2cc(NC(=O)CCCCCC(=O)Nc3ccccc3N)ccc2O[C@H]1CN(C)Cc1ccc(-c2ccccc2)cc1`?
Answer: cytotoxicity call (HSkMC): inactive; cytotoxicity call (HepG2): inactive; growth inhibition call (S. aureus RN4220): inactive

Question: What does the source list for `NNC(=O)[C@H]1CCCNC1=O`?
Answer: cytotoxicity call (HSkMC): inactive; cytotoxicity call (HepG2): active; growth inhibition call (S. aureus RN4220): inactive

Question: `C[C@@H]1CN([C@H](C)CO)C(=O)c2cc(C#Cc3ccccn3)cnc2O[C@H]1CN(C)C(=O)c1cnccn1` was tested. Which cytotoxicity call (HSkMC) did it give?
Answer: inactive

Question: And the cytotoxicity call (HepG2)?
Answer: inactive

Question: And the growth inhibition call (S. aureus RN4220)?
Answer: inactive

Question: What does the source list for `C[C@@H]1CN([C@H](C)CO)S(=O)(=O)c2ccc(C#Cc3ccncc3)cc2O[C@@H]1CN(C)C(=O)C1CCOCC1`?
Answer: cytotoxicity call (HSkMC): inactive; cytotoxicity call (HepG2): active; growth inhibition call (S. aureus RN4220): inactive

Question: What does the source list for `Cc1noc(C)c1NC(=O)N(C)C[C@H]1Oc2cc(C#CCN(C)C)ccc2S(=O)(=O)N([C@@H](C)CO)C[C@H]1C`?
Answer: cytotoxicity call (HSkMC): inactive; cytotoxicity call (HepG2): inactive; growth inhibition call (S. aureus RN4220): inactive

Question: With `CC(C)CC#Cc1cnc2c(c1)C(=O)N([C@@H](C)CO)C[C@H](C)[C@H](CN(C)S(=O)(=O)c1cn(C)cn1)O2` as the compound, how does the cytotoxicity call (HSkMC) read?
Answer: inactive

Question: And the cytotoxicity call (HepG2)?
Answer: inactive

Question: What about the growth inhibition call (S. aureus RN4220) of the same compound?
Answer: inactive

Question: With `Cc1ccc(S(=O)(=O)N(C)C[C@@H]2Oc3ccc(NC(=O)c4ccncc4)cc3CC(=O)N([C@H](C)CO)C[C@@H]2C)cc1` as the compound, how does the cytotoxicity call (HSkMC) read?
Answer: inactive

Question: What about the cytotoxicity call (HepG2) of the same compound?
Answer: inactive

Question: And the growth inhibition call (S. aureus RN4220)?
Answer: inactive

Question: What does the source list for `COc1cc(-c2coc3cc(OCc4ccccc4)c(OC)c(O)c3c2=O)cc(OCc2ccccc2)c1OC`?
Answer: cytotoxicity call (HSkMC): inactive; cytotoxicity call (HepG2): inactive; growth inhibition call (S. aureus RN4220): inactive

Question: Which results are given for `COc1ccc2c3c([nH]c2c1)[C@H](CO)N(C[C@]13CN(CC2CCCCC2)C1)C(=O)Nc1cccc(c1)F`?
Answer: cytotoxicity call (HSkMC): active; cytotoxicity call (HepG2): active; growth inhibition call (S. aureus RN4220): active

Question: Which results are given for `COCC#Cc1ccc2c(c1)O[C@H](CN(C)S(=O)(=O)c1ccc(C)cc1)[C@@H](C)CN([C@@H](C)CO)S2(=O)=O`?
Answer: cytotoxicity call (HSkMC): inactive; cytotoxicity call (HepG2): inactive; growth inhibition call (S. aureus RN4220): inactive

Question: `C[C@@H]1CN([C@H](C)CO)C(=O)c2cc(NC(=O)NC3CCCCC3)ccc2O[C@H]1CN(C)C(=O)Nc1ccc(C(F)(F)F)cc1` was tested. Which cytotoxicity call (HSkMC) did it give?
Answer: inactive

Question: What about the cytotoxicity call (HepG2) of the same compound?
Answer: inactive

Question: What about the growth inhibition call (S. aureus RN4220) of the same compound?
Answer: inactive

Question: Which results are given for `Cc1ccc(S(=O)(=O)Nc2ccc3c(c2)C(=O)N([C@H](C)CO)C[C@H](C)[C@@H](CN(C)S(=O)(=O)c2ccccc2)O3)cc1`?
Answer: cytotoxicity call (HSkMC): inactive; cytotoxicity call (HepG2): inactive; growth inhibition call (S. aureus RN4220): inactive

Question: Which results are given for `CO[C@H]1CN(C)C(=O)c2ccc(NC(C)=O)cc2OC[C@@H](C)N(S(=O)(=O)c2cn(C)cn2)C[C@@H]1C`?
Answer: cytotoxicity call (HSkMC): inactive; cytotoxicity call (HepG2): inactive; growth inhibition call (S. aureus RN4220): inactive

Question: What does the source list for `C[C@@H]1CCCCO[C@H](CN(C)C(=O)Nc2ccc(F)cc2)[C@H](C)CN([C@H](C)CO)C(=O)c2cc(NC(=O)C3CCCCC3)ccc2O1`?
Answer: cytotoxicity call (HSkMC): inactive; cytotoxicity call (HepG2): inactive; growth inhibition call (S. aureus RN4220): inactive

Question: Which results are given for `Cc1ccc(S(=O)(=O)N(C)C[C@@H]2Oc3c(NC(=O)c4cnccn4)cccc3C(=O)N([C@@H](C)CO)C[C@H]2C)cc1`?
Answer: cytotoxicity call (HSkMC): inactive; cytotoxicity call (HepG2): inactive; growth inhibition call (S. aureus RN4220): inactive

Question: `Cc1noc(C)c1S(=O)(=O)Nc1ccc2c(c1)C(=O)N([C@@H](C)CO)C[C@@H](C)[C@@H](CN(C)C)OCCCC[C@H](C)O2` was tested. Which cytotoxicity call (HSkMC) did it give?
Answer: inactive

Question: What about the cytotoxicity call (HepG2) of the same compound?
Answer: inactive

Question: What about the growth inhibition call (S. aureus RN4220) of the same compound?
Answer: inactive

Reference: the antibiotic and cytotoxicity screens of Wong et al. (2023)
